Measurements: PubChem BioAssay AID1347073 (National Center for Advancing Translational Sciences (NCATS), 2019)
Hit rate of the full screen: of about 45,000 compounds, about 200 (0.44%) were called active. Another 7% or so got no clear call; they are omitted. Calls come from the whole dose curve; as a rule, active = well fitted activation curve with a large enough effect; inconclusive = small, poorly fitted or top-dose-only effect; inactive = no such curve, though single readings can be large or run the other way. Some of the results follow.

Test: qHTS of TDP-43 Inhibitors: NCGC Sytravon Library Screen; note: 0% is about no effect; nearly all actives have a fitted effect of over 55% in size
Conditions: yeast TDP-43 toxicity rescue, BacTiter-Glo growth, 24 h; series mostly up to 46.1 µM; growth rescue (activation): at the top concentration
Procedure, shortened: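 TDP-43-expressing yeast, pregrown in raffinose, seeded at OD600 0.02 in galactose medium with compound for 24 hr at 30 deg C. Growth read by BacTiter-Glo luminescence, so rescue of toxicity appears as activation.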

| Compound | growth rescue (activation) |
| --- | --- |
| O=C(Cc1ccc(-c2ccccc2)cc1)NC(c1ccccc1)c1ccccc1 | inactive: 23.9% |
| CCCn1nnc(NC(=S)NC(=O)/C=C/c2ccc(Cl)cc2)n1 | inactive: -5.44% |
| O=C(N/N=C/c1ccc(Cl)c([N+](=O)[O-])c1)c1cnccn1 | inactive: 6.23% |
| CNCc1cc(Cl)cc(OC)c1OC(C)C | inactive: -13.6% |
| COc1ccc(/C(C)=N/NC(=O)c2cc(-c3cccnc3)nc3ccccc23)cc1 | inactive: -3.26% |
| Cc1ccc2[nH]c(=O)c(CN(Cc3cccs3)S(=O)(=O)c3ccc4c(c3)OCCO4)cc2c1 | inactive: -17.7% |
| S=c1nc(-c2cccc(Cl)c2)[nH][nH]1 | inactive: -3.51% |
| COc1ccccc1NC(=O)C(C)N(C)CC(=O)Nc1cccc2ccccc12 (configuration not stated) | inactive: 25.1% |
| Cc1occc1C(=O)NCc1cccs1 | inactive: -9.87% |
| CC(=O)Nc1cnc(-c2cccc(C(=O)N(C)C)c2)cn1 | inactive: 6.24% |
| O=C(N/N=C/c1ccc([N+](=O)[O-])s1)c1ccncc1 | inactive: -3.36% |
| CC(C)c1ccc(/C=C/C(=O)Nc2nncs2)cc1 | inactive: 13.9% |
| Cc1cc(C)cc(NC(=O)CSc2nnc(CNC(=O)c3ccco3)o2)c1 | inactive: -0.623% |
| CCc1cccc(NS(=O)(=O)c2ccc3c(c2)NC(=O)CC(=O)N3)c1 | inactive: -0.355% |
| COc1cc([N+](=O)[O-])ccc1-c1ccc(/C=N/NC(N)=O)o1 | inactive: 3.67% |
| CC1(C)NC(=O)N(CC(=O)OCC(=O)c2ccc(Cl)s2)C1=O | inactive: 11.4% |
| COc1ccc(OCCN2CCC(C(=O)NC(c3ccccn3)c3ccccc3OC)CC2)cc1 (configuration not stated) | inactive: -2.75% |
| CC(NC(=O)c1cc2ccccc2oc1=O)c1ccccc1 (configuration not stated) | inactive: 24.7% |
| COc1ccc(OC)c(/C=C/C(=O)NCCc2nc3ccccc3[nH]2)c1 | inactive: 12.7% |
| CCNC(=O)NC(=O)C(C)OC(=O)C(C)(C)Oc1ccc(Cl)cc1 (configuration not stated) | inactive: -0.648% |
| Oc1ccccc1/C=N/N1CCN(c2ccccn2)CC1 | inactive: 1.75% |
| CC(C)CN1C(=O)c2ccc(C(=O)Nc3ccccc3C(=O)O)cc2C1=O | inactive: -0.512% |

| Compound | growth rescue (activation) |
| --- | --- |
| C/C(=N\NC(=O)c1ccc(CN2CCc3ccccc3C2)cc1)c1ccccc1O | inactive: 12.2% |
| CC(=O)Nc1cccc(Nc2nc(-c3cccs3)nc3ccccc23)c1 | inactive: -10.8% |
| O=C(COC(=O)C1CCCN1C(=O)c1cccs1)c1ccccc1 (configuration not stated) | inactive: -8.09% |
| COc1ccc(-n2c(C)c(C(=O)O)c3cc(OC)c4ccccc4c32)cc1 | inactive: 10.1% |
| CCCn1c(SCC(=O)NC2CCCC2)nnc1C(C)C | inactive: -3.13% |
| CC1(C)C2CCC1(CS(=O)(=O)NCCc1c[nH]c3ccccc13)C(=O)C2 (configuration not stated) | inactive: 8.17% |
| Cc1ccc(Nc2nnc(SCc3cc(=O)n4cc(C)ccc4n3)s2)cc1 | inactive: 5.48% |
| O=C1c2cccc3cccc(c23)C(=O)N1c1ccccn1 | inactive: -13.9% |
| COc1ccc(C(C)=O)cc1CSc1ccc2c(c1)OCCO2 | inactive: 14.2% |
| COc1ccc(OC)c(/C=C2\SC(N3CCCCC3)=NC2=O)c1 | inactive: -2.96% |
| CC1CCN(CCCNc2cc(NCCO)c([N+](=O)[O-])c3nonc23)CC1 | inactive: 0.896% |
| O=C1c2cccc([N+](=O)[O-])c2C(=O)N1c1c[nH]c(=O)[nH]c1=O | inactive: 7.83% |
| Cc1nc2ccc(NC(=S)NC3CCCCC3)cc2nc1C | inactive: 16.3% |
| O=C(NCC1CCCO1)C1CCC(CNS(=O)(=O)c2ccccc2)CC1 (configuration not stated) | inactive: -38.6% |
| CCOc1ccc(S(=O)(=O)N2CCCC(C(=O)NCCN3CCOCC3)C2)cc1Cl (configuration not stated) | inactive: -3.8% |
| Cc1ccc(C(=O)N/C(=C\c2ccc(-c3ccc(Cl)cc3)o2)C(=O)NCCCN(C)C)cc1 | inactive: 8.7% |
| NS(=O)(=O)c1ccc(NC(=O)CSc2cn[nH]n2)cc1 | inactive: -10.5% |
| O=C(NNC(=O)c1ccccc1O)c1ccco1 | inactive: -5.04% |
| CCOc1ccc(NC(=O)CCC(=O)NNC(=O)NC2CCCCC2)cc1 | inactive: -6.88% |
| CC(C)c1ccc(N(CC(=O)NCCCN2CCOCC2)S(=O)(=O)c2ccccc2)cc1 | inactive: 24.9% |
| COc1ccc(-c2ocnc2C(=O)Nc2ccc3c(c2)CCC3)cc1 | inactive: 10.2% |
| Cc1ccsc1CNCC(O)c1ccccc1 (configuration not stated) | inactive: -6.73% |

| Compound | growth rescue (activation) |
| --- | --- |
| O=C(Nc1ccc(Br)cc1)c1ccc(N2C(=O)C3CC=CCC3C2=O)cc1 (configuration not stated) | inactive: 12.3% |
| O=C(C[n+]1cccc(CNC(=O)c2ccc(OC(F)F)cc2)c1)Nc1cccc(C(F)(F)F)c1 | inactive: 2.61% |
| COCCN(C(=O)CCC(=O)Nc1ccccn1)C(C(=O)NC(C)C)c1ccc(Cl)cc1 (configuration not stated) | inactive: -8.82% |
| COc1cccc(C(=O)OCC(=O)NCc2ccc3c(c2)OCO3)c1OC | inactive: -2.25% |
| Cn1cccc1C(=O)NC(=O)COC(=O)c1ccc(S(C)(=O)=O)c([N+](=O)[O-])c1 | inactive: 2.36% |
| CCC(NC(=O)OCc1ccccc1)C(=O)Oc1ccc2ccc(=O)oc2c1 (configuration not stated) | inactive: -23.1% |
| C/C(=N\N=C1\NC(=O)CC(C(=O)O)S1)c1ccc(F)cc1 (configuration not stated) | inactive: 13.7% |
| CCc1cccc(CC)c1NC(=O)COn1nnc2ccc(C(F)(F)F)cc21 | inactive: -23.5% |
| C/C(N)=C(/C#N)C(=O)CSc1n[nH]c(-c2ccccc2Br)n1 | inactive: -19.1% |
| O=C(Cn1ncc2c3ccccc3n(Cc3cccc(Cl)c3)c2c1=O)NCC1CCCO1 (configuration not stated) | inactive: 4.77% |
| CCNC(=O)COC(=O)c1cccc(Br)c1 | inactive: 29.8% |
| Cn1c(=S)ccc2ccccc21 | inactive: 6.17% |
| Cc1nc(NC(=S)NC(=O)COc2ccccc2Cl)ccc1Br | inactive: 7.37% |
| c1cc(-c2ccc3nncn3c2)ccc1CN1CCOCC1 | inactive: -10.6% |
| O=C(NC(=S)Nc1ccc(Br)cn1)c1cccnc1 | inactive: -4.96% |
| COc1ccc(/C=N/NC(=O)c2cc3c(OC)ccc(OC)c3[nH]2)cc1O | inactive: 9.19% |
| COc1ccc(CNC(=O)C/C(C)=N/NC(=O)Cc2ccc(OC)cc2)cc1 | inactive: 1.95% |
| O=c1c2ccccc2ncn1-c1ccccc1F | inactive: 5.75% |
| Cc1c(CN(C)Cc2cn(C)nc2-c2ccccc2F)[nH]c2ccccc12 | inactive: -1.87% |
| CCOC(=O)Nc1ccc2c(COC(=O)C(NS(=O)(=O)c3ccc(Cl)cc3)C(C)O)cc(=O)oc2c1 (configuration not stated) | inactive: 14.7% |
| O=C(COc1ccc(S(=O)(=O)N2CCCCC2)cc1Cl)N1CCCC1 | inactive: 1.07% |
| S=c1[nH]c(-c2ccccc2)cn1/N=C/c1cccs1 | inactive: 21.6% |

| Compound | growth rescue (activation) |
| --- | --- |
| COCCNC(=O)C1(C)CCN(C(=O)C2(c3ccc(Cl)cc3)CCCC2)C1 (configuration not stated) | inactive: -2.2% |
| CCc1ccc(-n2c(=O)c3c(C)c(C)sc3n(CC(=O)NCC3CCCO3)c2=O)cc1 (configuration not stated) | inactive: 5.33% |
| O=C(Cc1ccc(Cl)c(Cl)c1)Nc1cccnc1 | inactive: 4.02% |
| Cc1ccccc1C(=O)Nc1cccc(-c2cn3ccccc3n2)c1 | inactive: 9.92% |
| CN1CCN(c2ccc(Cl)cc2NC(=O)c2nn(-c3ccccc3)c(=O)c3ccccc23)CC1 | inactive: 4.24% |
| COc1cc(/C=C/C(=O)OCC(=O)N2CCN(S(=O)(=O)c3ccc(C)cc3C)CC2)ccc1O | inactive: 19.6% |
| OC[C@@H]1CN(Cc2ccc(F)cc2)C[C@H](n2cnc3c(NC4CC4)ncnc32)O1 | inactive: 0.319% |
| CCCC1=NN(C(=O)C(=O)Nc2ccc(Br)cc2)C(O)(C(F)(F)F)C1 (configuration not stated) | inactive: 15% |
| CN(C)S(=O)(=O)N1CCN(C(=O)c2ccc3c(c2)OCO3)CC1 | inactive: 20.1% |
| O=C(Nc1ccc(Br)cc1)c1cc(S(=O)(=O)Nc2ccccn2)ccc1Cl | inactive: 1.02% |
| COc1cccc(OC)c1OC(=O)/C=C/c1ccc(C)o1 | inactive: 19.9% |
| O=C(NCCCN1CCOCC1)C(=O)c1c[nH]c2ccccc12 | inactive: -13.1% |
| COc1ccc(/C(=N\O)c2ncc(C(F)(F)F)cc2Cl)cc1 | inactive: 13.5% |
| CCc1ccc(NC(=O)COc2ccc(F)cc2C(=O)c2cnn(-c3ccccc3)c2)cc1 | inactive: 14.7% |
| Cc1cc(C(=O)OCC(=O)Nc2cccc(S(N)(=O)=O)c2)c(C)o1 | inactive: 25.8% |
| Cc1cc2nc(-c3ccc(NC(=O)c4ccc(OCC(C)C)cc4)cc3)oc2cc1C | inactive: -2.09% |
| COc1ccccc1C(C)NCC(=O)Nc1ccccc1C(F)(F)F (configuration not stated) | inactive: 6.51% |
| COc1ccc(C(=O)CSc2nnc(CN3CCCCC3)n2-c2ccc(Cl)cc2)cc1OC | inactive: 1.65% |
| CC(C)NC(=O)C1CCN(C2CCN(CC3CC=CCC3)CC2)CC1 (configuration not stated) | inactive: 6.81% |
| CCOC(=O)C1(C)CCN1C(=O)Cc1ccc(OC)cc1 (configuration not stated) | inactive: -5.57% |
| CN(CC(=O)Nc1ccc2c(c1)OCCO2)CC(=O)Nc1ccc(F)c(F)c1F | inactive: 1.13% |
| O=C(O)c1cccc(NC(=S)NC(NC(=O)c2ccco2)C(Cl)(Cl)Cl)c1 (configuration not stated) | inactive: -2.51% |

| Compound | growth rescue (activation) |
| --- | --- |
| Cc1sc2nc(COC(=O)c3cccc(S(=O)(=O)N(C)c4ccccc4)c3)[nH]c(=O)c2c1C | inactive: 10.6% |
| Brc1ccc(-c2csc(N/N=C/c3cccnc3)n2)cc1 | inactive: 12.7% |
| CCN(CC)CC(=O)Nc1ccc([N+](=O)[O-])cc1 | inactive: -20% |
| CCOc1ccc(N(C(=O)CNC(=O)c2ccco2)C(C(=O)NC2CCCC2)c2ccncc2)cc1 (configuration not stated) | inactive: -5.3% |
| Cn1c(NCCN2CCCC2)nc2cc(-c3ccccc3)sc2c1=O | inactive: 5.76% |
| COc1ccc(N(Cc2cc(=O)[nH]c3ccccc23)C(=O)CCl)cc1 | inactive: 3.57% |
| CN(c1ccc(C(=O)NCc2ccc3c(c2)OCO3)cc1)S(=O)(=O)c1ccccc1 | inactive: 18.6% |
| O=C(O)CC1S/C(=N/N=C/C2CC=CCC2)NC1=O (configuration not stated) | inactive: -19.1% |
| CS(=O)(=O)N1CCN(c2ccc([N+](=O)[O-])cc2C(F)(F)F)CC1 | inactive: 26% |
| CC(=O)c1cccc(NC(=O)c2cc(S(=O)(=O)N3CCOCC3)cs2)c1 | inactive: 6.56% |
| CC(=O)Oc1cccc(/C=C2\Sc3ccccc3C2=O)c1 | inactive: -11.2% |
| CCn1c(NCc2ccccc2NS(=O)(=O)c2ccc(C)cc2)nc2ccccc21 | inactive: 12.1% |
| CC(=C/c1ccccc1)/C=N/NC(=O)c1ccccn1 | inactive: 29.4% |
| N/C(=N\OCc1ccc([N+](=O)[O-])cc1)c1ccccn1 | inactive: 12.9% |
| Cc1cc(C)c2oc(C(=O)NCCc3ccc(S(N)(=O)=O)cc3)cc(=O)c2c1 | inactive: 28.8% |
| CN1CCN(C(=O)c2ccc3c(c2)NC(=O)C(N2CCOCC2)S3)CC1 (configuration not stated) | inactive: 10.9% |
| CCOC(=O)c1sc(N2C(=O)C(O)=C(C(=O)c3ccco3)C2c2ccc(C)o2)nc1C (configuration not stated) | inactive: 17% |
| O=C(CCSc1ccccc1)Nc1ccc(OCc2ccccc2)cc1 | inactive: 12.6% |
| O=C(CCNC(=O)c1ccc(Br)cc1)NNC(=O)c1ccccc1 | inactive: -9.16% |
